Reference: PubChem BioAssay (Tox21)
Several values for one entry are separate records, joined by “and”; a condition that tells them apart may be missing. Equal entries are not always repeated. Inconclusive results, whose numbers are uncertain, are shown with a selection of clear calls. For some assays here: Potencies of inconclusive entries are doubtful fits and often do not repeat. A structure can be active in one record and inactive in another. Activity calls are given as the source filed them. Unless noted, calls follow the shape of the dose curve; as a rule, active = well fitted curve in the direction sought with a large enough effect in the repeat runs; inconclusive = weak or mixed curves; inactive = no such curve, though single readings can be large; an effect the other way counts as inactive or inconclusive.

Legend:
[1] = qHTS assay for small molecule agonists of the p53 signaling pathway (AID 651631; calls by dose curve; also: nearly all actives have a fitted effect of over 15% in size); conditions: HCT-116 p53RE-bla reporter, beta-lactamase FRET ratio, 16 h; activation: at 73.3 µM (top of the series) unless noted
Summary of the method: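 Quantitative high-throughput format: 4,000 p53RE-bla HCT-116 cells/well, 5 h pre-incubation, 16 h compound exposure at 37 °C, 2 h room-temperature substrate step, fluorescence intensity measured.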

[2] = qHTS assay for small molecules that induce genotoxicity in human embryonic kidney cells expressing luciferase-tagged ATAD5 - cell viability (AID 651634; calls by dose curve; also: potency is read from the fitted curve at half-maximal effect; nearly all actives have a fitted effect of over 25% in size)
Summary of the method: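 HEK293T cells carrying luciferase-tagged ATAD5, 2,000 cells/well, exposed to compound for 15.5 hr at 37C. Viability read as live-cell protease activity by CellTiter-Fluor fluorescence after 30 min at 37C.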

[3] = qHTS assay for small molecule disruptors of the mitochondrial membrane potential (AID 720635); conditions: HepG2 mitochondrial membrane potential, Mito-MPS dye ratio; series mostly up to 83.2 µM; also: potency is read from the fitted curve at half-maximal effect
Summary of the method: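 Mitochondrial membrane potential tracked with Mito-MPS dye, red aggregates (ex 540/em 590 nm) against green monomers (ex 490/em 535 nm). Compound treatment 1 hr at 37C, dye 30 min in HepG2.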

[4] = biological target: Glucocorticoid receptor (Homo sapiens) (UniProt P04150); assay: qHTS assay to identify small molecule antagonists of the glucocorticoid receptor (GR) signaling pathway (AID 720692; active = well fitted inhibition curve with a large enough effect in the signal ratio in the repeat runs, not every such curve was filed as active; inconclusive = weak or mixed curves, or effect the other way; inactive = no such curve, though single readings can be large or run the other way; the % refers to the signal ratio); conditions: GR-bla HeLa, beta-lactamase FRET ratio, dexamethasone-stimulated, 18 h; series mostly up to 58.5 µM
Sequence of UniProt P04150 (P04150 whole entry, looked up): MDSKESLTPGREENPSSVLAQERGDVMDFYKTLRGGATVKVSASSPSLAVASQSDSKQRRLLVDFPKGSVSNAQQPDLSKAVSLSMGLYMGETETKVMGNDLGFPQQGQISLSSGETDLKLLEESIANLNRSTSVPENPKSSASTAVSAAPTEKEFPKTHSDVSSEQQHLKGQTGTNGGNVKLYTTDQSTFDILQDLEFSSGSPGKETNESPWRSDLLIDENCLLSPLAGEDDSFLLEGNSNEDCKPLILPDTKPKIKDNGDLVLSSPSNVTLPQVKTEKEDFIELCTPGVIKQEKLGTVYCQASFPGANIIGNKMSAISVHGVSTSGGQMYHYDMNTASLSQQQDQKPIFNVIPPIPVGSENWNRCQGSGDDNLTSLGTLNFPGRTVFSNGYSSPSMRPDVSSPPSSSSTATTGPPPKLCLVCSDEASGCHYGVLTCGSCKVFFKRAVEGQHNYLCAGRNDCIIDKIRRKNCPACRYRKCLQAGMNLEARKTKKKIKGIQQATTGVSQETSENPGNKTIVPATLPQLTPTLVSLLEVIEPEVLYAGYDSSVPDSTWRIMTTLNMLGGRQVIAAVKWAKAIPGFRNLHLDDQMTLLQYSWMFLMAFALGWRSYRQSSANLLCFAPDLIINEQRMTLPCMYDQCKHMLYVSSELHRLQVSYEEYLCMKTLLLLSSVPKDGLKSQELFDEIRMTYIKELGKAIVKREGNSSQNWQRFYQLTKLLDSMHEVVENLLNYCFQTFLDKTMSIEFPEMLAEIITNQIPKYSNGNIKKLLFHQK
Summary of the method: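 GR-bla HeLa cells carrying a GRE-driven beta-lactamase reporter received compound after 4 h plating, then dexamethasone (5 nM final). After 18 h at 37C, the FRET substrate was loaded for 2 h at room temperature and fluorescence read.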

[5] = qHTS assay for identifying genotoxic compounds that show differential cytotoxicity against isogenic chicken DT40 cell lines with known DNA damage response pathways - wild type cell line (AID 743012); conditions: DT40 wild type chicken cells viability, CellTiter-Glo, 40 h; activity change, negative = cytotoxicity: at 68.4 µM (top of the series) unless noted; also: potency is read from the fitted curve at half-maximal effect; nearly all actives have a fitted effect of over 60% in size
Summary of the method: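 Wild-type DT40 cells (300/well) exposed to compounds for 40 hours at 37 C/5% CO2. Viability read by CellTiter-Glo luminescence after 30 min at room temperature.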

[6] = qHTS assay for identifying genotoxic compounds that show differential cytotoxicity against isogenic chicken DT40 cell lines with known DNA damage response pathways - Rev3 mutant cell line (AID 743014); conditions: chicken DT40 Rev3-/- viability, CellTiter-Glo, 40 h; series mostly up to 68.4 µM; also: potency is read from the fitted curve at half-maximal effect; nearly all actives have a fitted effect of over 55% in size
[7] = qHTS assay to identify small molecule antagonists of the androgen receptor (AR) signaling pathway - cell viability counter screen (AID 743033; also: potency is read from the fitted curve at half-maximal effect; nearly all actives have a fitted effect of over 45% in size); conditions: AR-bla HEK293 viability, CellTiter-Glo luminescence, 16 h; activity change, negative = cytotoxicity: at 58.5 µM (top of the series) unless noted
[8] = qHTS assay to identify small molecule antagonists of the androgen receptor (AR) signaling pathway using the MDA cell line - cell viability counter screen (AID 743041; also: potency is read from the fitted curve at half-maximal effect; nearly all actives have a fitted effect of over 45% in size); conditions: MDA-kb2 viability, CellTiter-Fluor, 16 h, cells co-treated with R1881 androgen agonist; series mostly up to 70.3 µM
Summary of the method: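 R1881-driven MDA-kb2 AR-luc cells, 3,000/well, were dosed with library compounds for 16 h; cell health came from CellTiter-Fluor fluorescence in the reporter wells.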

[9] = qHTS assay to identify small molecule antagonists of the thyroid receptor (TR) signaling pathway - cell viability counter screen (AID 743064); conditions: GH3.TRE-Luc viability, CellTiter-Fluor, 24 h; activity change, negative = cytotoxic: at 70.3 µM (top of the series) unless noted; also: potency is read from the fitted curve at half-maximal effect; nearly all actives have a fitted effect of over 50% in size
Summary of the method: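 Compounds were tested on GH3.TRE-Luc cells in the presence of T3 at 1 nM final. Following 23.5 h at 37 °C, cell viability was quantified by CellTiter-Fluor.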

[10] = qHTS assay to identify small molecule antagonists of the thyroid receptor (TR) signaling pathway (AID 743065); also: potency is read from the fitted curve at half-maximal effect; nearly all actives have a fitted effect of over 55% in size
Summary of the method: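 Antagonism measured as loss of luciferase signal in GH3 cells stably carrying a TRE-luciferase reporter, co-treated with compound and T3 (1 nM final) for 23.5 h at 37 C. Viability was read in the same well by CellTiter-Fluor.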

[11] = qHTS assay to identify small molecule antagonists of the estrogen receptor alpha (ER-alpha) signaling pathway - cell viability counter screen (AID 743074; calls by dose curve;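 also: HEK293 cells carrying ER-alpha-UAS-bla reporter stimulated with 17beta-estradiol; potency is read from the fitted curve at half-maximal effect; nearly all actives have a fitted effect of over 45% in size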)
[12] = biological target: Estrogen receptor (Homo sapiens) (UniProt P03372); assay: qHTS assay to identify small molecule agonists of the estrogen receptor alpha (ER-alpha) signaling pathway using the BG1 cell line (AID 743079); conditions: BG1Luc4E2 cells, ERE-luciferase agonist, 22 h; activation: at 70.3 µM (top of the series) unless noted; also: potency is read from the fitted curve at half-maximal effect; nearly all actives have a fitted effect of over 20% in size
Sequence of UniProt P03372 (P03372 whole entry, looked up): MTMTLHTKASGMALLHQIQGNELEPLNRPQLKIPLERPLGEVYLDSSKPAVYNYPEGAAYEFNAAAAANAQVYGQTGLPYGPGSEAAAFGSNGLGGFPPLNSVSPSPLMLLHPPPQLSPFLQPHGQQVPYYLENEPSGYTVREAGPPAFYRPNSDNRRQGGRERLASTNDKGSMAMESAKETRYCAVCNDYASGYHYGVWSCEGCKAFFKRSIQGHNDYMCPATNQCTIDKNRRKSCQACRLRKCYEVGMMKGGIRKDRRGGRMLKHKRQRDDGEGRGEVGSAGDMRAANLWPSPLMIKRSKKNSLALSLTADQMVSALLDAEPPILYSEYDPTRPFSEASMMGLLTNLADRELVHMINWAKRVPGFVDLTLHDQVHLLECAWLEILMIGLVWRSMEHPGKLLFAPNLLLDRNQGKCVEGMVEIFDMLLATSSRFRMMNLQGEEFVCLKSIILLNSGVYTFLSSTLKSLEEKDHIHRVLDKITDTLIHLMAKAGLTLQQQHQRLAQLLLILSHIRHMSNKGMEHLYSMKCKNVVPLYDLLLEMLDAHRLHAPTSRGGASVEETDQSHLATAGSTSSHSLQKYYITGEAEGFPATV

[13] = qHTS assay to identify small molecule antagonists of the estrogen receptor alpha (ER-alpha) signaling pathway using the BG1 cell line - cell viability counter screen (AID 743081); conditions: BG1Luc4E2 viability, CellTiter-Fluor, 22 h; activity change, negative = cytotoxicity: at 70.3 µM (top of the series) unless noted;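 also: compound given together with 17beta-estradiol as the ER stimulus; potency is read from the fitted curve at half-maximal effect; nearly all actives have a fitted effect of over 45% in size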
Aromatase (Homo sapiens) = Aromatase (Homo sapiens) (UniProt P11511); assay: qHTS assay to identify aromatase inhibitors (AID 743083); also: potency is read from the fitted curve at half-maximal effect; nearly all actives have a fitted effect of over 55% in size
Sequence of UniProt P11511 (P11511 whole entry, looked up): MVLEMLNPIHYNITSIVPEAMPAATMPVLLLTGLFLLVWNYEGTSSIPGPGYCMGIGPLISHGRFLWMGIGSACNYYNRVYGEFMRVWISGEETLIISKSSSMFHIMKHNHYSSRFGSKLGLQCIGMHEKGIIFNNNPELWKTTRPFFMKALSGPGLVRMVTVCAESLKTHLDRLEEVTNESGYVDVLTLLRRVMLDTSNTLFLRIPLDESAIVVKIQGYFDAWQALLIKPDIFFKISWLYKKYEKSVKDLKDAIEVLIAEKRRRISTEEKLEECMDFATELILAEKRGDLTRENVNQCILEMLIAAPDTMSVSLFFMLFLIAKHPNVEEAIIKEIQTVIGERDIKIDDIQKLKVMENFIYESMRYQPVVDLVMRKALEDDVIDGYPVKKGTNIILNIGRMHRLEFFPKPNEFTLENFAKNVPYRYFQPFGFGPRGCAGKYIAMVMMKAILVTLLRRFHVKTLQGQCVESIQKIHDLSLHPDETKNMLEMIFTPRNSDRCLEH

[14] = qHTS assay to identify aromatase inhibitors - cell viability counter screen (AID 743084); conditions: MCF-7 aro ERE viability, CellTiter-Fluor, 24 h; activity change, negative = cytotoxicity: at 70.3 µM (top of the series) unless noted;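 also: cells stimulated with testosterone during compound exposure; potency is read from the fitted curve at half-maximal effect; nearly all actives have a fitted effect of over 55% in size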
[15] = qHTS assay to identify small molecule that activate the aryl hydrocarbon receptor (AhR) signaling pathway - cell viability counter screen (AID 743086)
Summary of the method: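 Cytotoxicity counter screen: CellTiter-Fluor signal (30 min, 37 C) in 4000 HepG2 cells/well carrying the DRE-luciferase reporter, following 24 h compound exposure at 37 C.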

[16] = biological target: Nuclear receptor subfamily 1 group I member 2 (Homo sapiens) (UniProt O75469); assay: CYP3A4 induction through human pregnane X receptor (PXR) by small molecules, qHTS assay (AID 1346984); conditions: DPX-2 HepG2 PXR, CYP3A4-luciferin luminescence, 24 h; activation: at 46.1 µM (top of the series) unless noted; also: nearly all actives have a fitted effect of over 40% in size
Summary of the method: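 DPX-2 HepG2 cells carrying a PXR response element and CYP3A4-promoter luciferase construct, treated with compounds 24 hr at 37C. Then P450-Glo CYP3A4 Luciferin-IPA substrate (3uM final) for 3 hr at 37C, One-Glo added, luminescence read.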
Tags tell the direction and shape of the fitted curve or compound fluorescence and quenching.

Compound: Cc1cc(-c2ccc(N=Nc3ccc4c(S(=O)(=O)O)cc(S(=O)(=O)O)c(N)c4c3O)c(C)c2)ccc1N=Nc1ccc2c(S(=O)(=O)O)cc(S(=O)(=O)O)c(N)c2c1O
- Potency [1]: inactive
- Potency [2]: inconclusive: 9.44 µM [falling, partial curve, poor fit]
- Potency [3]: inconclusive: 11.1 µM [falling, partial curve] and inconclusive: 5.96 µM [falling, partial curve]
- Potency [4]: inactive
- Potency [5]: inconclusive: 11.9 µM [cytotoxic, partial curve]
- Potency [6]: inconclusive: 21.1 µM [cytotoxic, partial curve]
- Potency [7]: inconclusive: 30.1 µM [rising, single point]
- Potency [8]: inconclusive: 33.5 µM [cytotoxic, partial curve, poor fit] and inconclusive: 29.8 µM [cytotoxic]
- Potency [9]: inconclusive: 26.6 µM [cytotoxic, partial curve, poor fit]
- Potency [10]: inconclusive: 29.8 µM [inhibitor, partial curve]
- Potency [11]: inconclusive: 26.8 µM [cytotoxic, partial curve, poor fit] and inconclusive: 23.9 µM [cytotoxic, partial curve]
- Potency [12]: inconclusive: 29.8 µM [inhibitor] and inconclusive: 9.44 µM [inhibitor, partial curve]
- Potency [13]: inconclusive: 10.6 µM [cytotoxic, partial curve]
- Potency (Aromatase (Homo sapiens)): inconclusive: 26.6 µM [inhibitor, partial curve]
- Potency [14]: inconclusive: 29.8 µM [cytotoxic, partial curve] and active: 23.7 µM
- Potency [15]: active: 29.8 µM
- Potency [16]: inactive
